Laboratory results from the supplement of paper PMC8728848.
This is one part of the list.

Legend:
Test in all cases: glycan array binding signal (z-score within array); higher = stronger binding
Conditions in all cases: glycan notation: IUPAC condensed, linker removed
[1] = target: Fuc(a1-2)[Gal(a1-3)]Gal(b1-4)GlcNAc(b1-2)Man(a1-3)[Fuc(a1-2)[Gal(a1-3)]Gal(b1-4)GlcNAc(b1-2)Man(a1-6)]Man(b1-4)GlcNAc(b1-4)GlcNAc
Summary of the method: (§1)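 Glycan array data were curated from 3228 arrays in the Consortium for Functional Glycomics database and kept only where the protein sequence was available. Glycan names were converted to IUPAC-condensed notation, and columns mapping to the same glycan were averaged. The binding signal is a within-array Z-score, averaged across arrays of the same protein sequence at different concentrations or buffers and across linkers. Negative Z-scores can be read as non-binding.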

[2] = target: Fuc(a1-2)[Gal(a1-3)]Gal(b1-4)GlcNAc(b1-2)Man(a1-3)[Fuc(a1-2)[Gal(a1-3)]Gal(b1-4)GlcNAc(b1-2)Man(a1-6)]Man(b1-4)GlcNAc(b1-4)[Fuc(a1-6)]GlcNAc
Summary of the method: as §1

[3] = target: Fuc(a1-2)[Gal(a1-3)]Gal(b1-4)GlcNAc(b1-3)GalNAc
Summary of the method: as §1

[4] = target: Fuc(a1-2)[Gal(a1-3)]Gal(b1-4)GlcNAc(b1-3)[Fuc(a1-2)[Gal(a1-3)]Gal(b1-4)GlcNAc(b1-6)]GalNAc
Summary of the method: as §1

[5] = target: Fuc(a1-2)[Gal(a1-3)]Gal(b1-4)GlcNAc(b1-6)GalNAc
Summary of the method: as §1

[6] = target: Fuc(a1-2)[Gal(a1-3)]Gal(b1-4)[Fuc(a1-3)]Glc
Summary of the method: as §1

[7] = target: Fuc(a1-2)[Gal(a1-3)]Gal(b1-4)[Fuc(a1-3)]GlcNAc
Summary of the method: as §1

[8] = target: Fuc(a1-2)[Gal(a1-3)]Gal(b1-4)[Fuc(a1-3)]GlcNAc(b1-3)GalNAc
Summary of the method: as §1

[9] = target: Fuc(a1-2)[Gal(a1-4)]Gal(b1-4)GlcNAc
Summary of the method: as §1

[10] = target: Fuc(a1-2)[GalNAc(a1-3)]Gal
Summary of the method: as §1

[11] = target: Fuc(a1-2)[GalNAc(a1-3)]Gal(b1-3)GalNAc(a1-3)[Fuc(a1-2)]Gal(b1-4)GlcNAc
Summary of the method: as §1

[12] = target: Fuc(a1-2)[GalNAc(a1-3)]Gal(b1-3)GalNAc(b1-3)Gal(a1-4)Gal(b1-4)Glc
Summary of the method: as §1

[13] = target: Fuc(a1-2)[GalNAc(a1-3)]Gal(b1-3)GlcNAc
Summary of the method: as §1

[14] = target: Fuc(a1-2)[GalNAc(a1-3)]Gal(b1-3)GlcNAc(b1-2)Man(a1-3)[Fuc(a1-2)[GalNAc(a1-3)]Gal(b1-3)GlcNAc(b1-2)Man(a1-6)]Man(b1-4)GlcNAc(b1-4)GlcNAc
Summary of the method: as §1

[15] = target: Fuc(a1-2)[GalNAc(a1-3)]Gal(b1-3)GlcNAc(b1-2)Man(a1-3)[Fuc(a1-2)[GalNAc(a1-3)]Gal(b1-3)GlcNAc(b1-2)Man(a1-6)]Man(b1-4)GlcNAc(b1-4)[Fuc(a1-6)]GlcNAc
Summary of the method: as §1

[16] = target: Fuc(a1-2)[GalNAc(a1-3)]Gal(b1-3)GlcNAc(b1-3)GalNAc
Summary of the method: as §1

[17] = target: Fuc(a1-2)[GalNAc(a1-3)]Gal(b1-3)GlcNAc(b1-6)GalNAc
Summary of the method: as §1

[18] = target: Fuc(a1-2)[GalNAc(a1-3)]Gal(b1-4)Glc
Summary of the method: as §1

[19] = target: Fuc(a1-2)[GalNAc(a1-3)]Gal(b1-4)GlcNAc
Summary of the method: as §1

[20] = target: Fuc(a1-2)[GalNAc(a1-3)]Gal(b1-4)GlcNAc(b1-2)Man
Summary of the method: as §1

[21] = target: Fuc(a1-2)[GalNAc(a1-3)]Gal(b1-4)GlcNAc(b1-2)Man(a1-3)[Fuc(a1-2)[GalNAc(a1-3)]Gal(b1-4)GlcNAc(b1-2)Man(a1-6)]Man(b1-4)GlcNAc(b1-4)GlcNAc
Summary of the method: as §1

[22] = target: Fuc(a1-2)[GalNAc(a1-3)]Gal(b1-4)GlcNAc(b1-2)Man(a1-3)[Fuc(a1-2)[GalNAc(a1-3)]Gal(b1-4)GlcNAc(b1-2)Man(a1-6)]Man(b1-4)GlcNAc(b1-4)[Fuc(a1-6)]GlcNAc
Summary of the method: as §1

[23] = target: Fuc(a1-2)[GalNAc(a1-3)]Gal(b1-4)GlcNAc(b1-3)Gal(b1-4)GlcNAc
Summary of the method: as §1

[24] = target: Fuc(a1-2)[GalNAc(a1-3)]Gal(b1-4)GlcNAc(b1-3)Gal(b1-4)GlcNAc(b1-3)Gal(b1-4)GlcNAc
Summary of the method: as §1

[25] = target: Fuc(a1-2)[GalNAc(a1-3)]Gal(b1-4)GlcNAc(b1-3)GalNAc
Summary of the method: as §1

[26] = target: Fuc(a1-2)[GalNAc(a1-3)]Gal(b1-4)GlcNAc(b1-3)[Fuc(a1-2)[GalNAc(a1-3)]Gal(b1-4)GlcNAc(b1-6)]GalNAc
Summary of the method: as §1

[27] = target: Fuc(a1-2)[GalNAc(a1-3)]Gal(b1-4)GlcNAc(b1-6)GalNAc
Summary of the method: as §1

[28] = target: Fuc(a1-2)[GalNAc(a1-3)]Gal(b1-4)[Fuc(a1-3)]GlcNAc
Summary of the method: as §1

[29] = target: Fuc(a1-2)[GalNAc(a1-3)]Gal(b1-4)[Fuc(a1-3)]GlcNAc(b1-3)GalNAc
Summary of the method: as §1

[30] = target: Fuc(a1-2)[GalNAc(a1-4)]Gal(b1-4)GlcNAc
Summary of the method: as §1

[31] = target: Fuc(a1-2)[GalNAc(b1-3)]Gal
Summary of the method: as §1

[32] = target: Fuc(a1-3)GlcNAc
Summary of the method: as §1

[33] = target: Fuc(a1-3)[Gal(b1-4)]Glc6S
Summary of the method: as §1

[34] = target: Fuc(a1-3)[Gal(b1-4)]GlcNAc
Summary of the method: as §1

[35] = target: Fuc(a1-3)[Gal(b1-4)]GlcNAc(b1-2)Man
Summary of the method: as §1

[36] = target: Fuc(a1-3)[Gal(b1-4)]GlcNAc(b1-2)Man(a1-3)[Fuc(a1-3)[Gal(b1-4)]GlcNAc(b1-2)Man(a1-6)]Man(b1-4)GlcNAc(b1-4)GlcNAc
Summary of the method: as §1

[37] = target: Fuc(a1-3)[Gal(b1-4)]GlcNAc(b1-2)Man(a1-3)[Fuc(a1-3)[Gal(b1-4)]GlcNAc(b1-2)Man(a1-6)]Man(b1-4)GlcNAc(b1-4)[Fuc(a1-6)]GlcNAc
Summary of the method: as §1

[38] = target: Fuc(a1-3)[Gal(b1-4)]GlcNAc(b1-3)Gal(b1-3)[Fuc(a1-4)]GlcNAc
Summary of the method: as §1

[39] = target: Fuc(a1-3)[Gal(b1-4)]GlcNAc(b1-3)Gal(b1-4)[Fuc(a1-3)]GlcNAc
Summary of the method: as §1

[40] = target: Fuc(a1-3)[Gal(b1-4)]GlcNAc(b1-3)Gal(b1-4)[Fuc(a1-3)]GlcNAc(b1-3)Gal(b1-4)[Fuc(a1-3)]GlcNAc
Summary of the method: as §1

[41] = target: Fuc(a1-3)[Gal(b1-4)]GlcNAc(b1-3)GalNAc
Summary of the method: as §1

[42] = target: Fuc(a1-3)[Gal(b1-4)]GlcNAc(b1-6)GalNAc
Summary of the method: as §1

[43] = target: Fuc(a1-3)[Gal(b1-4)]GlcNAc(b1-6)[Gal(b1-3)GlcNAc(b1-3)]Gal(b1-4)Glc
Summary of the method: as §1

[44] = target: Fuc(a1-3)[Gal(b1-4)]GlcNAc6S
Summary of the method: as §1

[45] = target: Fuc(a1-3)[Gal3S(b1-4)]Glc
Summary of the method: as §1

B1: HML-Native (Hypnea musciformis), P84871 (protein)
chain: QKFCTLDIAPVCCQIVIGGGMYTAGNACMCEGFVSGVGRCENPKECPCTREAQIPSCCSSRWGLVSVTGKCACDCLGGTVAFPEPCPSPY
- glycan array binding signal (z-score) [1]: 0.081
- glycan array binding signal (z-score) [2]: 1.64
- glycan array binding signal (z-score) [3]: -0.271
- glycan array binding signal (z-score) [4]: -0.238
- glycan array binding signal (z-score) [5]: -0.289
- glycan array binding signal (z-score) [6]: -0.283
- glycan array binding signal (z-score) [7]: -0.17
- glycan array binding signal (z-score) [8]: -0.308
- glycan array binding signal (z-score) [9]: -0.257
- glycan array binding signal (z-score) [10]: -0.275
- glycan array binding signal (z-score) [11]: -0.327
- glycan array binding signal (z-score) [12]: -0.448
- glycan array binding signal (z-score) [13]: -0.249
- glycan array binding signal (z-score) [14]: -0.093
- glycan array binding signal (z-score) [15]: 1.61
- glycan array binding signal (z-score) [16]: -0.072
- glycan array binding signal (z-score) [17]: -0.215
- glycan array binding signal (z-score) [18]: -0.137
- glycan array binding signal (z-score) [19]: -0.162
- glycan array binding signal (z-score) [20]: -0.344
- glycan array binding signal (z-score) [21]: -0.193
- glycan array binding signal (z-score) [22]: 1.42
- glycan array binding signal (z-score) [23]: -0.272
- glycan array binding signal (z-score) [24]: -0.092
- glycan array binding signal (z-score) [25]: -0.302
- glycan array binding signal (z-score) [26]: -0.305
- glycan array binding signal (z-score) [27]: -0.288
- glycan array binding signal (z-score) [28]: -0.275
- glycan array binding signal (z-score) [29]: -0.211
- glycan array binding signal (z-score) [30]: -0.162
- glycan array binding signal (z-score) [31]: -0.348
- glycan array binding signal (z-score) [32]: -0.242
- glycan array binding signal (z-score) [33]: -0.205
- glycan array binding signal (z-score) [34]: -0.29
- glycan array binding signal (z-score) [35]: -0.264
- glycan array binding signal (z-score) [36]: -0.08
- glycan array binding signal (z-score) [37]: 0.654
- glycan array binding signal (z-score) [38]: -0.3
- glycan array binding signal (z-score) [39]: -0.103
- glycan array binding signal (z-score) [40]: -0.199
- glycan array binding signal (z-score) [41]: -0.313
- glycan array binding signal (z-score) [42]: -0.15
- glycan array binding signal (z-score) [43]: -0.299
- glycan array binding signal (z-score) [44]: 0.017
- glycan array binding signal (z-score) [45]: -0.176
